{"source": "the supplement of paper PMC3334620", "note": "In all, about 33,000 sequences were measured (“E-score (-0.5 to 0.5)”: median about -0.054, highest 2% from about 0.39 on). Some of the results follow.", "data": [{"biological_target": "Ylr278c (UniProt Q05854)", "experiment": "PBM E-score (8-mer binding enrichment) (E-score (-0.5 to 0.5)); higher = stronger / more preferred TF binding; most listed sequences are background and not binding sites", "details": "protein concentration: 200 nM; construct: GST-DNA-binding domain", "procedure,_shortened": "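Detection of bound protein used fluorescent anti-GST, with scans normalised by masliner. The proteins were GST-tagged yeast transcription factors applied at about 100-200 nM to universal all-10-mer Agilent arrays made double-stranded by primer extension. Each ungapped eight-base word, pooled with its reverse complement, was scored with an E-score from the Universal PBM Analysis Suite.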", "values": [{"sequence": "AGGCAATC", "PBM E-score": -0.163}, {"sequence": "ACTTTTCA", "PBM E-score": -0.324}, {"sequence": "GTCGGCAC", "PBM E-score": 0.171}, {"sequence": "ACGAATGC", "PBM E-score": -0.163}, {"sequence": "AGCACACG", "PBM E-score": -0.204}, {"sequence": "AAAATAAC", "PBM E-score": -0.142}, {"sequence": "CACGTGAA", "PBM E-score": -0.0639}, {"sequence": "TATGGAAA", "PBM E-score": -0.034}, {"sequence": "CGGACATC", "PBM E-score": 0.421}, {"sequence": "CGCCGAAA", "PBM E-score": 0.358}, {"sequence": "CGCGGACC", "PBM E-score": 0.386}, {"sequence": "AGTGGATC", "PBM E-score": 0.0696}, {"sequence": "ATATGGCG", "PBM E-score": 0.142}, {"sequence": "GGTCAAGA", "PBM E-score": -0.149}, {"sequence": "CAGGGTAA", "PBM E-score": -0.211}, {"sequence": "CCTACTAG", "PBM E-score": -0.254}, {"sequence": "CAGGATCA", "PBM E-score": -0.0765}, {"sequence": "AACATGAT", "PBM E-score": -0.0638}, {"sequence": "CACGAACC", "PBM E-score": -0.145}, {"sequence": "AAGCGATC", "PBM E-score": 0.0764}, {"sequence": "TAATCCTA", "PBM E-score": 0.0848}, {"sequence": "AAACACAC", "PBM E-score": -0.0375}, {"sequence": "ACCTACAT", "PBM E-score": -0.0972}, {"sequence": "CGCAAGAG", "PBM E-score": -0.0595}, {"sequence": "GGGGCTAC", "PBM E-score": 0.0935}, {"sequence": "ACGGTACT", "PBM E-score": 0.017}, {"sequence": "GGATAGAC", "PBM E-score": -0.0587}, {"sequence": "GGGTTAGA", "PBM E-score": -0.0507}, {"sequence": "CATCAACG", "PBM E-score": 0.0343}, {"sequence": "ACATCACT", "PBM E-score": -0.137}, {"sequence": "GATAGGAC", "PBM E-score": -0.123}, {"sequence": "ACGACATG", "PBM E-score": -0.16}, {"sequence": "TGGTACCA", "PBM E-score": -0.008}, {"sequence": "CAGCAATC", "PBM E-score": -0.108}, {"sequence": "AAAACCCG", "PBM E-score": 0.369}, {"sequence": "CTATTCAC", "PBM E-score": 0.0556}, {"sequence": "AAGAGTGT", "PBM E-score": -0.126}, {"sequence": "CAAGAAGA", "PBM E-score": -0.121}, {"sequence": "GCATTACA", "PBM E-score": -0.0626}, {"sequence": "CAAAAACC", "PBM E-score": 0.194}, {"sequence": "GCTGGGGA", "PBM E-score": -0.114}, {"sequence": "CTCGCACA", "PBM E-score": 0.0207}, {"sequence": "CTGACAGC", "PBM E-score": -0.0804}, {"sequence": "CCAAAGTC", "PBM E-score": -0.0999}, {"sequence": "ATGTGTCC", "PBM E-score": 0.0567}, {"sequence": "GGCTGGAA", "PBM E-score": -0.0866}, {"sequence": "CGTTTTGC", "PBM E-score": -0.0286}, {"sequence": "AACTAAGT", "PBM E-score": -0.0963}, {"sequence": "CCCTGCAG", "PBM E-score": 0.0146}, {"sequence": "CCTTCACG", "PBM E-score": 0.00613}, {"sequence": "GGCCAAGA", "PBM E-score": -0.0893}, {"sequence": "CGTGAGAG", "PBM E-score": -0.158}, {"sequence": "GGGGCCGA", "PBM E-score": 0.0787}, {"sequence": "CTGTGGCA", "PBM E-score": -0.311}, {"sequence": "TAGATCCA", "PBM E-score": -0.128}, {"sequence": "AAGGTACT", "PBM E-score": -0.0144}, {"sequence": "ACTATCAC", "PBM E-score": -0.173}, {"sequence": "CGTGATTC", "PBM E-score": "-6e-05"}, {"sequence": "ACGGGGGC", "PBM E-score": -0.00097}, {"sequence": "TCGCCACA", "PBM E-score": 0.0158}, {"sequence": "CATAGTAA", "PBM E-score": -0.204}, {"sequence": "CCTTTGAA", "PBM E-score": -0.189}, {"sequence": "ACTCCCCT", "PBM E-score": 0.174}, {"sequence": "CGCCACAA", "PBM E-score": 0.00563}, {"sequence": "CAAAGTGC", "PBM E-score": -0.0832}, {"sequence": "GATCCTAC", "PBM E-score": 0.0326}, {"sequence": "ATCTCTGG", "PBM E-score": -0.239}, {"sequence": "CGCTGGTC", "PBM E-score": -0.118}, {"sequence": "AGGTGTAA", "PBM E-score": -0.0299}, {"sequence": "TGGTGACA", "PBM E-score": -0.138}, {"sequence": "CCAGACAG", "PBM E-score": -0.173}, {"sequence": "ATCGCGAT", "PBM E-score": 0.0638}, {"sequence": "ATCTGGCG", "PBM E-score": -0.0525}, {"sequence": "ACTCGTAA", "PBM E-score": -0.00301}, {"sequence": "CCTGTTAG", "PBM E-score": -0.0475}, {"sequence": "GAGGCGGA", "PBM E-score": 0.373}, {"sequence": "CCAACAGC", "PBM E-score": -0.112}, {"sequence": "AAGTACCC", "PBM E-score": 0.00262}, {"sequence": "CATATATC", "PBM E-score": -0.0515}, {"sequence": "GACCTTAC", "PBM E-score": 0.0881}, {"sequence": "CGTGAATA", "PBM E-score": -0.00311}, {"sequence": "CCCTATAC", "PBM E-score": -0.0456}, {"sequence": "CCCGGTGC", "PBM E-score": 0.335}, {"sequence": "ATTGGCGG", "PBM E-score": 0.133}, {"sequence": "ACCCCAAG", "PBM E-score": 0.0432}, {"sequence": "ATCGGACA", "PBM E-score": 0.419}, {"sequence": "CGGAAGCA", "PBM E-score": 0.321}, {"sequence": "CGGATTAG", "PBM E-score": 0.299}, {"sequence": "GCGGCTGA", "PBM E-score": -0.177}, {"sequence": "TCCGCAAA", "PBM E-score": 0.367}, {"sequence": "AACGTCCA", "PBM E-score": -0.111}, {"sequence": "AAGATCTA", "PBM E-score": -0.169}, {"sequence": "CGGCGGTA", "PBM E-score": 0.361}, {"sequence": "GGGAAGGA", "PBM E-score": -0.0567}]}]}
